# Experimental data as given in the supplement of paper PMC10126150.
# Values marked as one replicate rest on one cluster of the flow cell; about a third of the high ones do not repeat.
# Test system: ATP
# Experiment: switch fluorescence ratio, 500 uM ATP over buffer (Cy3 cluster intensity, sum of 5 cycles each) (fold (ratio)); higher = stronger signal-on switching upon ATP binding; sequences stand for … in TCGTCGGCAGCGTCAGATGTGTATAAGAGACAGTTTTTTTTTTTTTTTTTTTTTTTTT…TC
# Settings: aptamer strand: ATP DNA aptamer (quencher-CACCTGGGGGAGTATTGCGGAGGAAGG + anchor), 100 nM annealed; ATP concentration: 500 uM; one replicate
# Procedure, shortened: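 The fluorescence ratio divides summed target-cycle Cy3 intensity by summed buffer-cycle Cy3 intensity for each cluster and is averaged per switch-domain sequence. Cy3-labelled switching-strand clusters on a modified Illumina MiSeq flow-cell were annealed to 100 nM quencher-labelled ATP aptamer, then imaged in selection buffer and again after 15 min with 500 uM ATP at 22 °C. Five such cycles were run, with NaOH stripping and re-annealing between them, and clusters outside 100-1000 RFU were excluded.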
# 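Also: ATP exposure 15 min at 22 °C before imaging.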
row,Sequence,switch fluorescence ratio
1,CTCCTCCATG,2.35
2,CGCGGCTCGG,1
3,GCCCTTGTGA,1.02
4,TCTTTACACC,1.15
5,GACAACATAC,3.23
6,TGCAGATTAA,0.99
7,CATCTCACAT,1.01
8,AGAGGTATTA,0.975
9,CGGTGTGAGC,1.05
10,AAGCTCATCC,1.07
11,TGGGTTGTCT,0.995
12,AAAGCGAAGC,1
13,CTTTCTATCG,1.06
14,ATCTGCTACG,1.01
15,GAGTTGTGTT,1.04
16,ATCCCTTGCG,1
17,AACAAATCCC,0.96
18,CGAGATGATC,1.06
19,GGTAAATGTT,0.968
20,TCTAGCCCCC,1.06
21,ATTTCATTGG,0.939
22,GCCACTTTTC,1.01
23,CGGGGCAGTA,0.982

row,Sequence,switch fluorescence ratio
1,GGTAAACCCC,0.994
2,AGTGGGCTTG,0.983
3,TTCACGTCCC,1.07
4,CATTAACCTG,1.02
5,AACGTTTAT,0.983
6,TAATGAAGCA,1.04
7,ATCGAAATGC,2.66
8,AAGTGATTTC,0.981
9,GAAATTATAC,1.75
10,ACGCACAACT,1.42
11,GGGCTCAGTG,1
12,TCTATATATC,1.05
13,GAATGGATCT,1.03
14,ATCCGGGGTC,1.08
15,CTAGAAGGAC,1.04
16,CACAATATT,1.04
17,TAAGCCACAC,1.11
18,TTTTGGTGAC,1.06
19,GTTTCTTCGG,0.953
20,CAATGGTTGT,1.02
21,ATACTAAGGC,1.03
22,AATCTCAACG,0.978
23,CCAACGTGAC,3.57

row,Sequence,switch fluorescence ratio
1,CAGGTCGCAC,0.999
2,GTTTATTGAT,0.951
3,CCGTTAGGAA,1.01
4,GTCGGGAA,1.03
5,CCATGTTTTT,1.05
6,AACGGGCAGC,1.01
7,CTTCTGTAAT,1.94
8,GACTTTTTTG,0.991
9,CCAAGAACTT,1.03
10,CACGGTAGCT,1.11
11,ATATAGGTCC,1.06
12,GTGAAGCGAC,1.37
13,ACGTGTCG,0.981
14,AGCGTGTGAA,1.07
15,CGATTTAGTT,1.03
16,AGTTTGCCCA,0.98
17,ATAGTTTCC,1.03
18,ATCATTGAGT,0.977
19,CCTGGCCTCG,1.07
20,TGAAGCCCGG,0.982
21,CCTACTGGT,1.02
22,TAAGCACGCC,1.17
23,AGTGCGGTCT,1.05

row,Sequence,switch fluorescence ratio
1,GTCGGAAGCC,1.04
2,AGGTACCCC,1.07
3,TGGAGAATCG,1.01
4,GTGTTATCTC,0.984
5,GGCTATATTA,1.03
6,CGGCCGATTT,1.05
7,ATAGAGATAA,0.982
8,GAATAAACTC,1
9,GATATAAGTA,0.961
10,GTCCTTAGTA,1.02
11,TACTTAGCAG,1.1
12,AATTATCTAA,0.977
13,CTTATGCCAG,1.02
14,GGATCGTGT,0.988
15,GTCGTTGCTG,1.03
16,ATCATGCAAA,1.02
17,ATCGTTGTTA,0.997
18,TCACCCGACT,1.02
19,TCGACAAACC,1.17
20,GATCTGATCG,0.997
21,CCTTTGTAGC,1.79
22,CAATGTCTA,1.01
23,TCATTCCGAG,1.74

row,Sequence,switch fluorescence ratio
1,AGGGTCAATA,0.972
2,AGCGATAATG,1.06
3,CTATAAACAG,1.01
4,CCAAGTACAG,1.3
5,AGCTGTCTCC,1.24
6,ATGGTTCGC,0.985
7,GCCTATCCAT,0.974
8,TCGGGCCCT,0.994
9,GCCGCAGAAT,1.23
10,GCGCTATATT,1.32
11,GCCCGCATGG,1.72
12,GAGTAGATGC,1.08
13,TGGATCGGGT,0.951
14,CGTAACCTTC,1.88
15,TATTGCTAAA,1.01
16,CAAAGCTAGT,1.03
17,GACCCTCTCC,1.45
18,GATCGGGCAC,1.01
19,CAAGTATTCA,1.03
20,GCATGTACT,1.19
21,ACTTAGTTT,1.01
22,TAGTTCCAGG,1.27
23,GCTGATTAAC,1.03

row,Sequence,switch fluorescence ratio
1,TTTACGTAAC,2.14
2,GACACCGTTT,0.931
3,AAAGGTGAG,1.04
4,AGCAATAGGG,2.93
5,TCCTGCTGGG,0.979
6,TATAGCGAGG,1.01
7,AGTCGGGGAT,0.97
8,CGCCCGCCAG,1.02
9,AGATCTGCAG,0.971
10,AGAAACATGC,1.06
11,CGCTTTGTTC,1.04
12,GTTGCTTCAC,1.02
13,GGCGAAATTT,0.988
14,CGTGCTCTTA,1
15,AGTGACCGCA,1.29
16,TTTGGACCAT,1.01
17,AGTTTGCAAT,0.949
18,GGCTCGTACG,0.969
19,CTAACAGGCC,1.01
20,GACATATTGT,1.04
21,CTGACACAGC,2.09
22,CAGCGGGTC,1.03
23,AGAACCAAAA,0.983

row,Sequence,switch fluorescence ratio
1,TCTAACAGAT,1
2,TATTCCAAGA,1.01
3,ATGCTTCTTG,1.02
4,ATTGGGCACA,1
5,TATGAGATCA,1
6,TACCTTTCAG,1.09
7,TTCAACACGG,1.05
8,GCAGGAAGAA,1.01
9,AAAAGACGCC,1.01
10,GCAATTAGTA,0.983
11,TTGACTTCCA,1.15
12,TCTAAGCACG,1.16
13,TTTAGGTG,1.19
14,TGGAGGAAAG,1.04
15,AGAAAACCGG,1.03
16,TCATAGGTCT,0.96
17,GCGGATAGGA,0.979
18,TACCATCAAG,1.03
19,CATGATGCGT,0.982
